Holding throughout (experiment): Viability of human cancer cell lines after 72 h of drug (GDSC screen)
Compound in one assay: Cc1cc([N+](=O)[O-])ccc1NS(=O)(=O)c1cc(Cl)ccc1Cl [FH535]
Conditions: top dose 32 µM; top dose inferred. Here is the method:
(§1)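 Human cancer cell lines in 384-well plates, medium with 10% serum, drug for 72 h over a 256-fold dose range (nine 2-fold or five 4-fold steps up to the top dose). Adherent lines were fixed and stained with the nucleic acid dye Syto60, suspension lines read with resazurin; signal relative to control wells, capped at 0 and 100%. One two-parameter sigmoid per drug and line, fitted in a mixed model over all curves with the slope shared within a line.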

Compound in the next assay: COc1cc(N2CCN(C)CC2)ccc1Nc1nc(N)c(C(=O)c2c(Cl)cccc2Cl)s1 [XMD14-99]
As to conditions: top dose 10.24 µM; top dose inferred. On the procedure:
as §1

Compound in another assay: O=C(NC1CCNCC1)c1n[nH]cc1NC(=O)c1c(Cl)cccc1Cl [AT-7519]
Conditions: top dose 10.24 µM; top dose inferred. Here is the method: as §1

The results in this text go back to the supplement of paper PMC4967469.

The IC50 comes from the fitted curve, where viability falls to half of the control; a fit beyond the top or the lowest dose is shown as a bound at that dose. AUC sums up the same curve from the lowest dose to the 256-fold higher top dose: 1 means no effect, lower means more sensitive. An inferred top dose is not printed in the source and was worked back from the curve model.

Consider HuO-3N1 (osteosarcoma, adherent), for which the AUC with FH535 was determined as 0.781; with XMD14-99, 0.981; with AT-7519, 0.751. For the same cell line, the IC50 in the assay with FH535 was 17.9 µM; with XMD14-99, above 10.2 µM; with AT-7519, 4.35 µM.

On to TT (thyroid, adherent), for which the AUC came to 0.744 with FH535, 0.982 in the assay with XMD14-99 and 0.848 with AT-7519. Moreover, the IC50 with FH535 is 13.4 µM; with XMD14-99 it was above 10.2 µM; with AT-7519, above 10.2 µM.

Take “ChaGo-K-1 (non-small cell lung carcinoma, adherent)”: the AUC amounted to 0.614 with FH535, 0.985 with XMD14-99 and 0.639 with AT-7519. The figures for the IC50 with FH535, in the assay with XMD14-99 and with AT-7519 were 4.33 µM, above 10.2 µM and 1.65 µM, respectively.

For the cell line PCI-15A (head and neck, adherent), the AUC was found to be 0.643 with FH535, 0.976 with XMD14-99 and 0.511 in the assay with AT-7519. Moreover, the IC50 in the assay with FH535 is 4.98 µM; with XMD14-99 it was above 10.2 µM; in the assay with AT-7519, 0.685 µM.

For UACC-812 (breast, adherent), the AUC was 0.873 with FH535, 0.991 with XMD14-99 and 0.931 with AT-7519. Further, the IC50 was 29.1 µM with FH535, above 10.2 µM with XMD14-99 and above 10.2 µM with AT-7519.

As to MDA-MB-330 (breast, adherent), the AUC came out at 0.463 with FH535, 0.984 in the assay with XMD14-99 and 0.773 with AT-7519. Also, the IC50 is 1.56 µM with FH535, above 10.2 µM with XMD14-99 and 4.54 µM in the assay with AT-7519.

On to CAL-27 (head and neck, adherent), for which the AUC was determined as 0.575 with FH535, 0.986 with XMD14-99 and 0.461 in the assay with AT-7519. For the same cell line, the values for the concentration for half-maximal inhibition (IC50) in the assay with FH535, with XMD14-99 and with AT-7519 were 3.21 µM, above 10.2 µM and 0.501 µM, respectively.

As for RO82-W-1 (thyroid, adherent), the AUC with FH535 was 0.85; with XMD14-99, 0.98; with AT-7519 it was 0.983. Moreover, the results for the IC50 with FH535, with XMD14-99 and with AT-7519 were above 32 µM, above 10.2 µM and above 10.2 µM, respectively.

22RV1 (prostate, adherent): the AUC in the assay with FH535 was found to be 0.559; with XMD14-99, 0.955; in the assay with AT-7519, 0.724. Further, the IC50 in the assay with FH535 was 3.01 µM; with XMD14-99, above 10.2 µM; in the assay with AT-7519, 3.28 µM.

On to IM-95 (stomach, adherent), for which the AUC turned out to be 0.568 with FH535, 0.959 with XMD14-99 and 0.41 with AT-7519. For the same cell line, the IC50 with FH535 is 3.11 µM; with XMD14-99, above 10.2 µM; in the assay with AT-7519, 0.357 µM.

Take huH-1 (liver, adherent): the AUC with FH535 came out at 0.522; in the assay with XMD14-99 it was 0.974; in the assay with AT-7519 it was 0.976. For the same cell line, the figures for the IC50 in the assay with FH535, with XMD14-99 and with AT-7519 were 2.33 µM, above 10.2 µM and above 10.2 µM, respectively.

HT-3 (cervix, adherent): the AUC with FH535 was 0.867; with XMD14-99 it was 0.984; with AT-7519 it was 0.592. The IC50 in the assay with FH535 is 29.6 µM; in the assay with XMD14-99 it was above 10.2 µM; with AT-7519, 1.15 µM.

In the case of YKG-1 (glioma, adherent), the AUC with FH535 worked out at 0.596; with XMD14-99, 0.978; in the assay with AT-7519, 0.686. The IC50 in the assay with FH535 is 3.68 µM; in the assay with XMD14-99 it was above 10.2 µM; with AT-7519, 2.14 µM.

Consider AN3-CA (endometrium, adherent), for which the AUC with FH535 was determined as 0.444; in the assay with XMD14-99, 0.978; in the assay with AT-7519, 0.777. For the same cell line, the IC50 with FH535 is 1.39 µM; in the assay with XMD14-99, above 10.2 µM; with AT-7519, 4.5 µM.

Regarding SNG-M (endometrium, adherent), the AUC in the assay with FH535 was 0.505; in the assay with XMD14-99, 0.943; with AT-7519 it was 0.587. In addition, the IC50 is 2.06 µM with FH535, above 10.2 µM in the assay with XMD14-99 and 1.1 µM with AT-7519.

Consider PCI-38 (head and neck, adherent), for which the figures for the AUC with FH535, in the assay with XMD14-99 and with AT-7519 were 0.83, 0.984 and 0.52, respectively. For the same cell line, the IC50 is 20.2 µM with FH535, above 10.2 µM in the assay with XMD14-99 and 0.727 µM with AT-7519.

On to HCC-56 (large intestine, adherent), for which the values for the AUC with FH535, with XMD14-99 and with AT-7519 were 0.622, 0.972 and 0.77, respectively. Further, the IC50 is 4.37 µM with FH535, above 10.2 µM with XMD14-99 and 3.99 µM with AT-7519.

Consider “NCI-H1437 (lung adenocarcinoma, adherent)”, for which the AUC stood at 0.535 with FH535, 0.963 in the assay with XMD14-99 and 0.431 with AT-7519. In addition, the IC50 with FH535 is 2.5 µM; in the assay with XMD14-99, above 10.2 µM; with AT-7519 it was 0.41 µM.

As to “NCI-H1688 (small cell lung carcinoma, adherent)”, the AUC in the assay with FH535 amounted to 0.571; in the assay with XMD14-99 it was 0.959; with AT-7519, 0.837. The IC50 in the assay with FH535 was 3.2 µM; with XMD14-99 it was above 10.2 µM; with AT-7519, 7.89 µM.
